Source: PMC4336329 (PLoS ONE, 2015)
Among all 310,000 compounds or so, about 14,000 (4.5%) showed an effect of 50% or more. Effects have a minus sign here. This is one part of the list.

Target: human ether-à-go-go-related gene (hERG) potassium channel (human, UniProt Q12809)
Assay: primary screen, population patch clamp on CHO cells stably expressing hERG
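Note: peak tail current of the secondary pulse compared with the same well before compound.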

Sequence of human ether-à-go-go-related gene (hERG) potassium channel (Q12809 whole entry, looked up): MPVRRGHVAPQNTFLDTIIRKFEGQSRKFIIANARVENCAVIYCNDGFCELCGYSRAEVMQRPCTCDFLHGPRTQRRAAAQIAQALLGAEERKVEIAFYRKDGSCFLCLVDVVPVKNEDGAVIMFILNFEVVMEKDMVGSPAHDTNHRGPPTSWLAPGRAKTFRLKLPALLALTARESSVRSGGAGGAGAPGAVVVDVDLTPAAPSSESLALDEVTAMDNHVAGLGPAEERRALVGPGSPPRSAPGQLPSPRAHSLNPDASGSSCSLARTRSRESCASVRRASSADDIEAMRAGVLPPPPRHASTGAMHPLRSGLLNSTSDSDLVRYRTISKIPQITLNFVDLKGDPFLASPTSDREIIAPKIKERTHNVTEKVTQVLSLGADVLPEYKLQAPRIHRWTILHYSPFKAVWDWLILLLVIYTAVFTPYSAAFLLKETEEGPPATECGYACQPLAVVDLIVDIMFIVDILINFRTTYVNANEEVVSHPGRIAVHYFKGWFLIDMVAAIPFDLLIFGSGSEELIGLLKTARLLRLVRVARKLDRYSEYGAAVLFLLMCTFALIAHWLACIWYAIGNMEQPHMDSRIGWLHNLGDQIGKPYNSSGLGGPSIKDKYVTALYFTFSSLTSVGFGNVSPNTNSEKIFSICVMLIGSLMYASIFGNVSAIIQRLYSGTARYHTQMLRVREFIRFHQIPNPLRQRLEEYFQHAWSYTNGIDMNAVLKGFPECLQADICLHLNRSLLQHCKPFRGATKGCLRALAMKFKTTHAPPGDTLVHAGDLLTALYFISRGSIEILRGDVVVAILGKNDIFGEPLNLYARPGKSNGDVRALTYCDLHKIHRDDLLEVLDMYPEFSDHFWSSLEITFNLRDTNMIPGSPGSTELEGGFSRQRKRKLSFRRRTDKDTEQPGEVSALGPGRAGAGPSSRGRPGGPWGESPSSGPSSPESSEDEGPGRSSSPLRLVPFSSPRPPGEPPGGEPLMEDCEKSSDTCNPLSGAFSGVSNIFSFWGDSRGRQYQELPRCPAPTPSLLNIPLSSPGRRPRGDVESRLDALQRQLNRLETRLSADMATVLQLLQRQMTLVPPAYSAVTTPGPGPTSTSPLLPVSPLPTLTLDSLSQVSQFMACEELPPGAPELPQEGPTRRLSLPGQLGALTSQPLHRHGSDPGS

Compared with `CNc1nc(=S)[nH]c2ccccc12`, `COc1cccc2cc(-c3ccnc(=S)[nH]3)oc12` is lower in “hERG current change (%, negative = inhibition) at 10uM” value: 12.6% for the first, 10.1% for the second.

Compared with `COc1ccc(-c2cc(C(F)(F)F)n3ncc(C(=O)N4CCCCC4c4cccnc4)c3n2)cc1` (centres unmarked), `COc1cccc(/C=N/Nc2nc(-c3cccnc3)nc3ccccc23)c1` is higher in “hERG current change (%, negative = inhibition) at 10uM” value: -15.7% for the first, 2% for the second.

Going from `O=C(NC(=S)Nc1cc([N+](=O)[O-])ccc1O)c1ccc2c(c1)OCO2` to `COc1cc(OC)cc(C(=O)NC(=S)Nc2cc3oc4ccccc4c3cc2OC)c1`, the “hERG current change (%, negative = inhibition) at 10uM” value rises from 4.41% to 18.5%.

First: COc1ccc(CNC(=O)c2c(C)cc(=O)oc2C)cc1
Second: COc1ccc(CNS(=O)(=O)c2cc3c(cc2C)N(C)CCO3)cc1
The “hERG current change (%, negative = inhibition) at 10uM” value of the first is lower: -26.8% for the first, -6.3% for the second.

Going from `CCN1CCN(c2ccc(S(=O)(=O)N3CCOCC3)cc2NC(=O)c2ccc(Cl)cc2Cl)CC1` to `CCOc1ccc(S(=O)(=O)N2CCOCC2)cc1NC(=O)CSC(=S)N1CCCC1`, the “hERG current change (%, negative = inhibition) at 10uM” value falls from -38.4% to -63%.

Compared with `C=CCOC(=O)C1=C(C)NC(=S)NC1c1cccs1` (centres unmarked), `CS(=O)(=O)Nc1cccc(C2=NN(C(=O)CCC(=O)O)C(c3cccs3)C2)c1` (centres unmarked) is higher in “hERG current change (%, negative = inhibition) at 10uM” value: -5.26% for the first, 26.3% for the second.

Going from `CC12C(=O)N(c3ccc(OC(=O)c4ccco4)cc3)C(=O)C1C1c3ccccc3C2c2ccccc21` (centres unmarked) to `Cc1ccc(C(=O)Nc2nc(-c3ccccc3)c(-c3ccccc3)o2)cc1`, the “hERG current change (%, negative = inhibition) at 10uM” value falls from 12.2% to -14.1%.

First: COc1cc(C(=S)N2CCN(C)CC2)ccc1OCC(=O)NCc1ccccc1
Second: COc1cc(NC(=O)CCc2ccccc2)c(C(=O)O)cc1OC
The “hERG current change (%, negative = inhibition) at 10uM” value of the first is higher: 27% for the first, -8.88% for the second.

Compared with `CS(=O)(=O)N(CC(=O)N1CCN(c2ccccc2F)CC1)c1cc(C(F)(F)F)ccc1Cl`, `O=C(NCc1cccc(C(F)(F)F)c1)N1CCN(S(=O)(=O)c2ccccc2F)CC1` is lower in “hERG current change (%, negative = inhibition) at 10uM” value: 7.95% for the first, -31.2% for the second.

Compared with `Cc1cccc(NC(=O)CSc2nnc(CNC(=O)c3ccc(S(=O)(=O)N(C)C)cc3)n2-c2ccccc2)c1`, `Cc1ccc(S(=O)(=O)NCCNC(=O)c2ccccc2)cc1` is higher in “hERG current change (%, negative = inhibition) at 10uM” value: -20.1% for the first, 12.4% for the second.

Compared with `CC(C)(C)c1ccccc1OCC(=O)NCCCn1ccnc1`, `O=C(Cn1cccc1)Nc1ccc(F)cc1F` is higher in “hERG current change (%, negative = inhibition) at 10uM” value: -25.1% for the first, -10.2% for the second.

Going from `CCc1nnc(NC(=O)c2cccc(NC(=O)C(C)C)c2)s1` to `CC(=O)Nc1c(O)nc(SCC(=O)Nc2cccc(C)c2)[nH]c1=O`, the “hERG current change (%, negative = inhibition) at 10uM” value rises from 9.98% to 14.8%.

Going from `Clc1ccc(-c2noc(CN3CCOCC3)n2)cc1` to `O=CN1CCCN(Cc2nc(-c3cccc(Cl)c3)no2)CC1`, the “hERG current change (%, negative = inhibition) at 10uM” value falls from 4.83% to -13.3%.

Compared with `Cc1ccc(N(CC(=O)NCc2ccco2)C(=O)CCC(=O)Nc2nccs2)cc1`, `O=C(CCNC(=O)c1ccc(Br)cc1)NCc1ccco1` is lower in “hERG current change (%, negative = inhibition) at 10uM” value: -1.5% for the first, -4.45% for the second.

First: COc1ccc(NC(=O)CN(C)C(=O)c2ccc(C)s2)cc1
Second: COc1ccc(NC(=O)Nc2ccccc2F)cc1
The “hERG current change (%, negative = inhibition) at 10uM” value of the first is lower: 6.73% for the first, 11.5% for the second.

First: O=C1NC(=O)C(=CN2CCc3ccccc32)C(=O)N1
Second: COc1cccc(C(=O)Oc2ccc(N3C(=O)CCC3=O)c(C)c2)c1
The “hERG current change (%, negative = inhibition) at 10uM” value of the first is lower: 15.8% for the first, 27.9% for the second.

Compared with `O=C(Nc1ccccc1)c1ccc(S(=O)(=O)N2CCOCC2)cc1`, `NS(=O)(=O)c1ccc(NC(=O)c2cccc(Cl)c2)cc1` is lower in “hERG current change (%, negative = inhibition) at 10uM” value: 2.32% for the first, -2.72% for the second.

Compared with `Cc1noc(C)c1S(=O)(=O)Nc1cc(C(F)(F)F)ccc1N1CCOCC1`, `CC(C)Sc1nc(N2CCOCC2)c2c3c(sc2n1)COC(C)(C)C3` is lower in “hERG current change (%, negative = inhibition) at 10uM” value: 7.85% for the first, -12% for the second.

First: Cc1ccc(-n2c(=O)c3c(n4cnnc24)-c2ccccc2CC32CCCCC2)cc1
Second: O=C1C=C(c2cccc3c2oc2ccccc23)CCC1
The “hERG current change (%, negative = inhibition) at 10uM” value of the first is lower: -16.6% for the first, -2.35% for the second.

First: CCN(CC)Cc1cc(NC2=NS(=O)(=O)c3ccccc32)ccc1OC(=O)C(C)C.Cl
Second: CCOc1ccc(NC2=C(OC)C(=O)c3ccccc3C2=O)cc1
The “hERG current change (%, negative = inhibition) at 10uM” value of the first is lower: -14.6% for the first, -3.1% for the second.

Going from `COc1ccccc1C(=O)COC(=O)Cc1n[nH]c(=O)c2ccccc12` to `O=C(COc1ccccc1)N1CCN(C(=O)c2ccccc2F)CC1`, the “hERG current change (%, negative = inhibition) at 10uM” value rises from -3.78% to 12.1%.

First: COC(=O)c1ccc(NC(=S)NC(=O)C2CCC2)cc1
Second: Cc1noc(C)c1C(=O)OCC(=O)Nc1ccc(C(N)=O)cc1
The “hERG current change (%, negative = inhibition) at 10uM” value of the first is higher: 22.4% for the first, 19.7% for the second.

Compared with `CC1(C)c2[nH]c3ccccc3c2C[C@H]2C(=O)N(Cc3ccc(F)cc3)C(=O)N21`, `COc1ccc(CNC(=O)CN(C(=O)c2snc(C(N)=O)c2N)c2ccccc2F)cc1` is lower in “hERG current change (%, negative = inhibition) at 10uM” value: 0.805% for the first, -8.74% for the second.

Going from `O=C(Nc1ccccc1F)C1(c2ccccc2)CC1(Cl)Cl` (centres unmarked) to `CCOC(=O)C1(C)C=C(Nc2ccccc2)C(=O)N1c1ccccc1` (centres unmarked), the “hERG current change (%, negative = inhibition) at 10uM” value rises from -70% to 25.7%.

Going from `O=C(O)CN1C(=O)/C(=C\c2cc(Br)ccc2OCc2ccccc2F)SC1=S` to `O=C(Cc1ccccc1F)NNC(=O)c1ccncc1`, the “hERG current change (%, negative = inhibition) at 10uM” value falls from 31.2% to 0.139%.

Going from `O=C(NCc1ccccc1)C(=O)NCC1OCCN1S(=O)(=O)c1ccc2c(c1)OCCO2` (centres unmarked) to `Cc1ccc(CNC(=O)CCc2ccc(S(=O)(=O)NCC(C)C)cc2)cc1`, the “hERG current change (%, negative = inhibition) at 10uM” value rises from -3.14% to -2.4%.

Compared with `CC(=O)c1ccc(-n2c(CCC(=O)O)ccc2-c2cccs2)cc1`, `COc1ccc(C(=O)N[C@H](C(=O)Nc2nc3ccccc3[nH]2)C(C)C)cc1` is higher in “hERG current change (%, negative = inhibition) at 10uM” value: -0.766% for the first, 22.2% for the second.

Compared with `O=c1[nH]ncc(N2CCN(C(c3ccccc3)c3ccccc3)CC2)c1Cl`, `Cn1c(=O)c2c(nc(NCc3ccccc3)n2CCCc2ccccc2)n(C)c1=O` is lower in “hERG current change (%, negative = inhibition) at 10uM” value: -4.18% for the first, -22.7% for the second.

Compared with `N=c1c(S(=O)(=O)c2ccccc2)cc2c(=O)n3ccccc3nc2n1Cc1cccnc1`, `O=C(OCc1nnc(-c2ccccc2)o1)c1cc2ccccc2cc1O` is higher in “hERG current change (%, negative = inhibition) at 10uM” value: -59.2% for the first, 8.95% for the second.

First: Cc1csc(=O)n1CCC(=O)OCC(=O)c1c(N)n(C)c(=O)n(C)c1=O
Second: CCOC(=O)CSc1nc2sc(C)c(C)c2c(=O)[nH]1
The “hERG current change (%, negative = inhibition) at 10uM” value of the first is lower: -4.76% for the first, 9.45% for the second.

Compared with `Cc1c(NC(=O)Nc2ccccc2Cl)sc(=S)n1C`, `Cc1cccc(C(=O)NCCc2n[nH]c(=S)n2C)c1` is higher in “hERG current change (%, negative = inhibition) at 10uM” value: -8.82% for the first, -3.72% for the second.

First: COc1ccc(C2C(C(N)=O)=C(C)Nc3nc(CCCO)nn32)cc1 (centres unmarked)
Second: CCNc1nc(Oc2ccc(OC)cc2)cc(C(F)(F)F)n1
The “hERG current change (%, negative = inhibition) at 10uM” value of the first is higher: 17.8% for the first, 9.28% for the second.

Going from `CC(C)=CC(=O)OCc1cc([N+](=O)[O-])cc2c1OCOC2` to `COC(=O)c1cc(C(=O)Nc2nnc(C3CC3)s2)cc([N+](=O)[O-])c1`, the “hERG current change (%, negative = inhibition) at 10uM” value rises from 8.69% to 16.7%.

Going from `O=C(c1ccc(N2CCCCC2)c([N+](=O)[O-])c1)N1CCN(c2ccccn2)CC1` to `N/C(=N\O)c1ccc(N2CCN(c3ncccc3C(F)(F)F)CC2)nc1`, the “hERG current change (%, negative = inhibition) at 10uM” value rises from -66.8% to -16.7%.

Compared with `O=C(/C=C/c1cn(CC(O)CN2CCCCCC2)c2ccccc12)c1cccs1` (centres unmarked), `O=C(Nc1ccc(F)cc1)NC1(C(=O)NCc2cccs2)CCCCC1` is higher in “hERG current change (%, negative = inhibition) at 10uM” value: -75.2% for the first, 1.49% for the second.

Compared with `O=[N+]([O-])c1ccc(-c2ccc(/C=N/n3cnnc3)o2)c(Br)c1`, `COc1ccc([N+](=O)[O-])cc1NC(=O)CCN1CCN(CCO)CC1` is higher in “hERG current change (%, negative = inhibition) at 10uM” value: -12.9% for the first, -9.47% for the second.

Compared with `O=C1NC(=S)NC(=O)C1C1CCCCC1`, `COc1ccc2c(c1)c(=O)oc1cc(OCC(=O)NC3CCCCC3)ccc12` is lower in “hERG current change (%, negative = inhibition) at 10uM” value: 1.49% for the first, -2.11% for the second.

Compared with `O=S(=O)(Nc1nc2ccccc2nc1NCC1CCCO1)c1cccs1` (centres unmarked), `COc1ccc(CN2CCC(c3nc4ccc(Cl)cc4[nH]3)CC2)cc1` is lower in “hERG current change (%, negative = inhibition) at 10uM” value: 0.629% for the first, -76.3% for the second.

Going from `CC(=O)Nc1ccc(NC(=O)c2ccc(NS(=O)(=O)c3cc(C(C)(C)C)cc(C)c3C)cc2)cc1` to `COc1ccc(F)cc1C(=O)C1CCCN(C(=O)c2cccc(N(C)C)c2)C1` (centres unmarked), the “hERG current change (%, negative = inhibition) at 10uM” value falls from -7.41% to -12%.

First: Cc1nc2nc(-c3cccnc3)[nH]n2c(=O)c1C
Second: Cc1sc2nc(CSCC(=O)Nc3c(F)cccc3F)[nH]c(=O)c2c1C
The “hERG current change (%, negative = inhibition) at 10uM” value of the first is higher: 22.7% for the first, 7.01% for the second.

First: Cc1[nH]nc2c1C(=O)CC(C)(C)C2
Second: Cc1ccc([N+](=O)[O-])c(C)[n+]1C.[I-]
The “hERG current change (%, negative = inhibition) at 10uM” value of the first is lower: 6.13% for the first, 34.3% for the second.

First: NC(=O)c1ccc(=O)n(Cc2ccc(F)c(F)c2)c1
Second: O=C(CCN1C(=O)C2CCCCC2C1=O)NNC(=O)c1cccc(Cl)c1 (centres unmarked)
The “hERG current change (%, negative = inhibition) at 10uM” value of the first is higher: 14.2% for the first, 6.14% for the second.

Going from `O=C(CCC1CCCCC1)NCc1cccs1` to `CC1CCCC(NC(=O)c2cc(S(=O)(=O)N3CCCCC3)ccc2Cl)C1C` (centres unmarked), the “hERG current change (%, negative = inhibition) at 10uM” value rises from -4.05% to -0.241%.

Going from `O=C(O)C1CCN(c2ccc(Cl)nn2)CC1` to `CCN(C(=O)CC(C)C)c1nnc(Cn2nnc3ccccc32)s1`, the “hERG current change (%, negative = inhibition) at 10uM” value falls from -3.83% to -14%.

`O=C(NC12CC3CC(CC(C3)C1)C2)C1=COCCO1` was tested, and the “hERG current change (%, negative = inhibition) at 10uM” value was 11.2%.
